Assay results published in the supplement of paper PMC4604168 (melanoma cell lines).
The other results are listed elsewhere or left out. Single values are uncertain, as repeats are few or missing.

Key:
Experiment in all cases: cell count relative to DMSO control; melanoma cells; higher = more viable cells
Conditions in all cases: library dose: low library concentration; 72 h
WM1745 = tested on: WM1745
WM3526 = tested on: WM3526
WM3619 = tested on: WM3619
WM451Lu = tested on: WM451Lu
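Further: cell number obtained by counting DAPI-stained nuclei in high-throughput microscope images with image analysis software, screen run in 1,536-well plates.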

| Structure (SMILES) | cell count (WM1745) [%] | cell count (WM3526) [%] | cell count (WM3619) [%] | cell count (WM451Lu) [%] |
| --- | --- | --- | --- | --- |
| CCN(CC)CCCCNc1ncc2cc(-c3cc(OC)cc(OC)c3)c(NC(=O)NC(C)(C)C)nc2n1 + Oc1nc(-c2ccc(C(F)(F)F)cc2)nc2c1CSCC2 [XAV939] (first compound 0.1 µM, partner dose 2 µM) | 85.2 | 104 | 101 | 122 |
| COc1cc2ncnc(Nc3ccc(Oc4ccccc4)cc3)c2cc1OC + COc1cc(N2CCC(N3CCN(C)CC3)CC2)ccc1Nc1ncc(Cl)c(Nc2ccccc2S(=O)(=O)C(C)C)n1 [NVP-TAE684] (first compound 2 µM, partner dose 0.08 µM) | 75.1 | 111 | 88.5 | 113 |
| O=S(=O)(c1ccccc1)N(CC(F)(F)F)c1ccc(C(O)(C(F)(F)F)C(F)(F)F)cc1 + Cn1cc(/C=C2\C(=O)Nc3cccnc32)c2ccccc21 [GW441756] (first compound 1.4 µM, partner dose 0.4 µM) | 80.7 | 65.6 | 136 | 94.1 |
| N#Cc1c(O)c2c(-c3ccc(-c4ccccc4O)cc3)csc2[nH]c1=O + COc1ccc(-c2ccc3c(N4CCOCC4)nc(N4C[C@@H](C)O[C@@H](C)C4)nc3n2)cc1CO [KU0063794] (first compound 2 µM, partner dose 0.02 µM) | 99.3 | 89.7 | 111 | 94.5 |
| COc1ccc(COc2ccc(Cc3cnc(N)nc3N)cc2OC)cc1 + O=c1cc(-c2cccc3c2Sc2ccccc2S3)oc(N2CCOCC2)c1 [KU55933] (first compound 1 µM, partner dose 1 µM) | 86.5 | 89.3 | 114 | 101 |
| N#Cc1c(O)c2c(-c3ccc(-c4ccccc4O)cc3)csc2[nH]c1=O + Oc1cc(-c2nc(-c3ccccc3)[nH]c2-c2ccncc2)ccc1Cl [L779450] (first compound 2 µM, partner dose 0.2 µM) | 99.7 | 93.1 | 121 | 112 |
| CCN(CC)CCCCNc1ncc2cc(-c3cc(OC)cc(OC)c3)c(NC(=O)NC(C)(C)C)nc2n1 + Oc1cc(-c2nc(-c3ccccc3)[nH]c2-c2ccncc2)ccc1Cl [L779450] (first compound 0.1 µM, partner dose 0.2 µM) | 93.9 | 91.7 | 120 | 101 |
| O=C1NC(=O)/C(=C/c2ccc(-c3ccc(F)cc3O)o2)S1 + c1cc(-c2cnn3cc(-c4ccc(OCCN5CCCCC5)cc4)cnc23)ccn1 [Dorsomorphin] (first compound 1 µM, partner dose 0.4 µM) | 97.8 | 84.4 | 90.9 | 145 |
| COC(=O)c1sccc1S(=O)(=O)Nc1ccc(Nc2ccccc2)cc1OC + c1cc(-c2cnn3cc(-c4ccc(OCCN5CCCCC5)cc4)cnc23)ccn1 [Dorsomorphin] (first compound 1 µM, partner dose 0.4 µM) | 99.6 | 97.1 | 107 | 84.7 |
| N#Cc1c(O)c2c(-c3ccc(-c4ccccc4O)cc3)csc2[nH]c1=O + Cc1cc([N+](=O)[O-])ccc1NS(=O)(=O)c1cc(Cl)ccc1Cl [FH535] (first compound 2 µM, partner dose 1 µM) | 102 | 101 | 104 | 108 |
| COc1ccc2c(c1)CCC1C2CCC2(C)C(NCCCCCCN3C(=O)C=CC3=O)CCC12 (stereo not given) + O=c1cc(-c2cccc3c2Sc2ccccc2S3)oc(N2CCOCC2)c1 [KU55933] (first compound 0.4 µM, partner dose 1 µM) | 89.1 | 80.4 | 118 | 145 |
| COc1ccc(COc2ccc(Cc3cnc(N)nc3N)cc2OC)cc1 + O=S(=O)(c1ccccc1)N(CC(F)(F)F)c1ccc(C(O)(C(F)(F)F)C(F)(F)F)cc1 [T0901317] (first compound 1 µM, partner dose 1.4 µM) | 88.8 | 78.9 | 97.2 | 89.4 |
| Oc1nc(-c2ccc(C(F)(F)F)cc2)nc2c1CSCC2 + COc1cc(N2CCC(N3CCN(C)CC3)CC2)ccc1Nc1ncc(Cl)c(Nc2ccccc2S(=O)(=O)C(C)C)n1 [NVP-TAE684] (first compound 2 µM, partner dose 0.08 µM) | 90.7 | 115 | 78.4 | 104 |
| COC(=O)c1sccc1S(=O)(=O)Nc1ccc(Nc2ccccc2)cc1OC + COc1ccc(-c2ccc3c(N4CCOCC4)nc(N4C[C@@H](C)O[C@@H](C)C4)nc3n2)cc1CO [KU0063794] (first compound 1 µM, partner dose 0.02 µM) | 93.7 | 101 | 90.8 | 117 |
| O=C(O)C(=O)Nc1sc2c(c1C(=O)O)CCNC2 + CC(C)CCN1c2nc(Nc3cc(F)c(O)c(F)c3)ncc2N(C)C(=O)C1C [BID1870] (first compound 1.66667 µM, partner dose 0.2 µM) | 75.2 | 87 | 155 | 112 |
